{"source": "PubChem BioAssay AID463173", "about": "(ICCB-Longwood Screening Facility, Harvard Medical School, 2010)", "note": "Hit rate of the full screen: of about 52,000 compounds, about 4,300 (8.3%) were called active. Cut-off read from the data, not from the text of the source: active = survival mostly below about 52% (no sharp cut-off); inactive = mostly above about 56%. The list shows a part of the results."}
{"test_system": "DeltatarO mutant", "experiment": "S. aureus survival, RN4220 and DeltatarO strains – OD600, teichoic acid synthesis inhibitors, primary screen (AID 463173)", "conditions": "S. aureus RN4220 wild type/DeltatarO growth, OD600, 18 h, stronger effect = lower value, screened at 18.75 µg/mL (by protocol)"}
{"smiles": "COC(=O)c1ccc(NC(=O)CC2C(=O)N(c3ccc(Cl)cc3)C(=O)N2Cc2ccco2)cc1", "note": "(configuration not stated)", "survival": "active: 37%"}
{"smiles": "Cc1[nH]c2ccccc2c1C1N2CC3(C)CN1CC(C)(C2)C3=O", "note": "(configuration not stated)", "survival": "inactive: 77%"}
{"smiles": "Cc1nn(C)c2c1c(C(F)(F)F)cc(=O)n2C(C)C(=O)NCc1ccc(Cl)cc1", "note": "(configuration not stated)", "survival": "inactive: 62%"}
{"smiles": "O=C(Nc1ccc(Br)cc1F)N1CCC(CN2CCCC2)CC1", "survival": "inactive: 82%"}
{"smiles": "CC1=C(C(=O)OCc2ccccc2)C(c2cccc(Cl)c2Cl)CC(=O)N1", "note": "(configuration not stated)", "survival": "inactive: 90%"}
{"smiles": "N/N=C1\\C(=N/O)CCc2nonc21", "survival": "inactive: 95%"}
{"smiles": "Cc1cccc(CNC(=O)CSCc2cnn(-c3ccccc3)c2-n2cccc2)c1", "survival": "inactive: 68%"}
{"smiles": "Cc1cc(=O)[nH]c(SCC(=O)N2CCCCC2)n1", "survival": "inactive: 118%"}
{"smiles": "CCOC(=O)c1ccc(NS(=O)(=O)c2cc(-c3onc(C)c3C)ccc2C)cc1", "survival": "inactive: 84%"}
{"smiles": "COc1cc(C(=O)N2CCN(C(=O)C(Cc3cc(C)ccc3C)NC(C)=O)CC2)cc(OC)c1OC", "note": "(configuration not stated)", "survival": "inactive: 98%"}
{"smiles": "CN1C(=O)C(=C(C#N)C#N)c2cc(Br)ccc21", "survival": "inactive: 98%"}
{"smiles": "COC(=O)c1ccc(CSc2nnc3ccc4ccccc4n23)cc1", "survival": "inactive: 74%"}
{"smiles": "CCn1cc2c(n1)-c1c(oc(C(=O)Nc3cccc(C(F)(F)F)c3)c1C)CC2", "survival": "inactive: 65%"}
{"smiles": "COc1ccccc1Cn1cc(C(=O)c2ccc(C)cc2)c(=O)c2cc3c(cc21)OCCO3", "survival": "inactive: 84%"}
{"smiles": "CCOc1cc2sc(N3CCC(C(=O)Nc4cc(C)cc(C)c4)CC3)nc2cc1Br", "survival": "inactive: 114%"}
{"smiles": "Cc1cc(=O)c2cc(C(=O)Nc3ccccc3C)ccc2[nH]1", "survival": "inactive: 84%"}
{"smiles": "COC(=O)c1cc2sc(Cl)cc2n1Cc1cc(C)ccc1C", "survival": "inactive: 94%"}
{"smiles": "CCOc1ccc(CNC(=O)CCCc2cn(C)c3ccccc23)cc1OC", "survival": "inactive: 86%"}
{"smiles": "CCc1ccccc1NC(=O)Cn1c2ncccc2c(=O)n1-c1ccccc1", "survival": "inactive: 100%"}
{"smiles": "COc1ccc(Cn2ccc3nc(C)c(C(=O)NCc4cccc(OC)c4)cc3c2=O)cc1", "survival": "inactive: 94%"}
{"smiles": "Cc1ccc(-n2nc3c(=O)n(CC(=O)NCC(C)c4ccccc4)nc(C)c3c2C)cc1", "note": "(configuration not stated)", "survival": "inactive: 73%"}
{"smiles": "CC(=O)Nc1ccc(NC(=O)CC2C(=O)Nc3ccccc3N2C(C)=O)cc1", "note": "(configuration not stated)", "survival": "inactive: 98%"}
{"smiles": "Cc1ccc(-n2nc3c(N4CCC(C(=O)NCc5ccccc5Cl)CC4)nnc(C)c3c2C)cc1", "survival": "inactive: 116%"}
{"smiles": "CC(=O)c1ccc(NC(=O)CCOc2ccccc2)cc1", "survival": "inactive: 146%"}
{"smiles": "COc1ccc(OC)c(S(=O)(=O)NCCc2csc(-c3cccc(F)c3)n2)c1", "survival": "inactive: 102%"}
{"smiles": "CCOC(=O)c1c(C)[nH]c(C)c1S(=O)(=O)NCC(=O)N1CCN(c2ccccc2OC)CC1", "survival": "inactive: 102%"}
{"smiles": "CCN(CC)C(=O)Nc1ccc2c(c1)N(Cc1ccccc1)C(=O)c1ccccc1S2", "survival": "inactive: 60%"}
{"smiles": "Cc1ccc(N(C)C(=O)c2cc(S(=O)(=O)N3CCOCC3)cn2C)cc1", "survival": "inactive: 92%"}
{"smiles": "CCCN(Cc1cccs1)C(=O)Nc1cc(OC)ccc1OC", "survival": "inactive: 58%"}
{"smiles": "COc1ccc(CCNC(=O)CCCCn2c(=O)c3ccccc3n(Cc3ccccc3Cl)c2=O)cc1OC", "survival": "inactive: 88%"}
{"smiles": "COc1ccccc1-c1noc(CCCC(=O)Nc2cc(C)ccc2C)n1", "survival": "inactive: 54%"}
{"smiles": "COc1ccc(C(=O)Nc2ccc(C(=O)OCc3cc(=O)n4nc(C5CC5)sc4n3)cc2)cc1", "survival": "active: -1%"}
{"smiles": "CC(C)C(OC(=O)c1cccs1)C(=O)NC1CCCC1", "note": "(configuration not stated)", "survival": "inactive: 96%"}
{"smiles": "COc1ccc(N(C(=O)/C=C\\C(=O)Nc2ccc(C)cc2)C(C(=O)NCc2ccco2)c2ccc(C)cc2)cc1", "note": "(configuration not stated)", "survival": "inactive: 88%"}
{"smiles": "CCCn1c(=NC(=O)c2cc3ccccc3o2)c(C(=O)OCC)cc2c(=O)n3ccccc3nc21", "survival": "active: 27%"}
{"smiles": "O=C(Cn1ncc2ccsc2c1=O)N1CCN(c2ccccc2F)CC1", "survival": "inactive: 94%"}
{"smiles": "O=S(=O)(c1ccc(-n2cnnn2)cc1)N1CCN(c2cccc(Cl)c2)CC1", "survival": "inactive: 76%"}
{"smiles": "Cc1c(C(=O)N2CCCCCC2)c(S(=O)(=O)N(Cc2ccccc2)C(C)(C)C)c(C)n1C", "survival": "inactive: 99%"}
{"smiles": "CCc1cccc(C)c1NC(=O)CN1CCCN(Cc2ccccc2Cl)S1(=O)=O", "survival": "inactive: 55%"}
{"smiles": "COc1cc(C2c3c(-c4ccccc4O)n[nH]c3C(=O)N2Cc2ccco2)ccc1OCC(C)C", "note": "(configuration not stated)", "survival": "active: 7%"}
{"smiles": "CCOc1ccccc1NC(=O)C(CC)n1c(C(=O)OC)cc2occc21", "note": "(configuration not stated)", "survival": "active: -4%"}
{"smiles": "Cc1csc(N/N=C\\CCc2ccccc2)n1", "survival": "inactive: 98%"}
{"smiles": "Cc1ccc(NC(=O)CN(C)S(=O)(=O)c2cnc[nH]2)cc1", "survival": "inactive: 102%"}
{"smiles": "COc1ccccc1OCC(=O)NCC(c1ccc(Cl)cc1)N1CCOCC1", "note": "(configuration not stated)", "survival": "inactive: 67%"}
{"smiles": "Cc1ccc(C)c(CN2C(=O)c3ccccc3S(=O)c3ccc(C(=O)N4CCN(c5cccc(Cl)c5)CC4)cc32)c1", "note": "(configuration not stated)", "survival": "inactive: 116%"}
{"smiles": "Cc1ccc(NC(=O)Cn2c(=O)n(CCCCC(=O)NCc3ccccc3Cl)c(=O)c3ccccc32)cc1", "survival": "inactive: 83%"}
{"smiles": "Cc1cc2ncn(S(=O)(=O)c3ccc(S(N)(=O)=O)cc3)c2cc1C", "survival": "inactive: 84%"}
{"smiles": "CCCc1nn2c(=O)cc(COc3ccc(/C=C(\\C#N)C(=O)Nc4ccccc4)cc3)nc2s1", "survival": "inactive: 66%"}
{"smiles": "CC(C)CC(=O)NC1(C(F)(F)F)C(=O)Nc2c1c(=O)[nH]c(=O)n2-c1ccccc1", "note": "(configuration not stated)", "survival": "inactive: 182%"}
{"smiles": "N=C(N)N1CCN(CC(O)COc2ccccc2)CC1", "note": "(configuration not stated)", "survival": "inactive: 84%"}
{"smiles": "NC1CCC(c2ccccc2)CC1", "note": "(configuration not stated)", "survival": "inactive: 78%"}
{"smiles": "Cc1ccc(-n2c(=O)c3cccnc3n2CC(=O)Nc2cc(Cl)ccc2C)cc1", "survival": "inactive: 123%"}
{"smiles": "O=c1cc(-c2ccccc2)n2c(SCc3c(F)cccc3Cl)nnc2[nH]1", "survival": "inactive: 71%"}
{"smiles": "COc1ccc(CSc2nc3ccncc3n2CC(=O)Nc2ccc(C)c(F)c2)cc1", "survival": "inactive: 85%"}
{"smiles": "CCc1ccccc1NC(=O)Cn1c(=O)n(-c2ccc(CC(=O)NCC3CCCO3)cc2)c(=O)c2ccccc21", "note": "(configuration not stated)", "survival": "inactive: 96%"}
{"smiles": "Cc1ccccc1C(=O)Nc1ccc2nc(SCC(=O)N3CCc4ccccc43)sc2c1", "survival": "inactive: 106%"}
{"smiles": "COc1ccc(CNC(=O)c2ccc3c(c2)N(Cc2ccc(C)cc2)CCS3)cc1", "survival": "inactive: 71%"}
